Test results: the supplement of paper PMC3334620
Over roughly 33,000 sequences, “E-score (-0.5 to 0.5)” has its median near -0.012; the highest 2% begin near 0.29. Some of the results follow.

biological target: T1, Ybr033w (UniProt P38073); experiment: PBM E-score (8-mer binding enrichment) (E-score (-0.5 to 0.5)); higher = stronger / more preferred TF binding; most listed sequences are background and not binding sites; details: protein concentration: 200 nM; construct: GST-full length
T1 sequence: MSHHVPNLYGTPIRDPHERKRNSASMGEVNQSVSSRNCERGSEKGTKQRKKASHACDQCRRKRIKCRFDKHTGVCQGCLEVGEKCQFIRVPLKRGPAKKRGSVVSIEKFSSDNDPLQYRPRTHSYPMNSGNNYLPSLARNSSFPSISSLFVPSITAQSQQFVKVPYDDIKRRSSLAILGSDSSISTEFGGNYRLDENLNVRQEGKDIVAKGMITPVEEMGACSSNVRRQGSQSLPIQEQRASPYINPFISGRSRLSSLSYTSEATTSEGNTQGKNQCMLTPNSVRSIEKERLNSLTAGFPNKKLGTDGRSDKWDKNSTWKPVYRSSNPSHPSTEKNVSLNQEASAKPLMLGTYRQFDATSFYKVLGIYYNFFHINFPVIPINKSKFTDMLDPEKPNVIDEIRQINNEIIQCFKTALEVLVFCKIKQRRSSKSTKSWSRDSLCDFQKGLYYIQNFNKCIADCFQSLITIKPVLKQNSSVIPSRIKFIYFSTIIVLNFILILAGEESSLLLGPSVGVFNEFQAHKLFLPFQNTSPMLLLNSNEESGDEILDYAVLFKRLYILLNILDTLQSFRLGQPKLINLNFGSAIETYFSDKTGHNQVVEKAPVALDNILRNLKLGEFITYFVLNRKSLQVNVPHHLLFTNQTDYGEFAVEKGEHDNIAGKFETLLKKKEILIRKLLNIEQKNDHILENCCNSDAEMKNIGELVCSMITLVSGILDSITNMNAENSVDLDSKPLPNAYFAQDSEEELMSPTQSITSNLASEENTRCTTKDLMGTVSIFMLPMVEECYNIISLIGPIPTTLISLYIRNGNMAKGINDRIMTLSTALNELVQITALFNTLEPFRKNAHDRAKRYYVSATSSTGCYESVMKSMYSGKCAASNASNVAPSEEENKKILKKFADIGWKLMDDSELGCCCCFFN
How it was run: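 Yeast transcription factors carrying a GST tag, as full-length proteins or DNA-binding domains, were produced by PURExpress in vitro transcription/translation. About 100-200 nM protein was applied to universal all-10-mer Agilent arrays, double-stranded by primer extension on fresh or once-stripped slides. Bound protein was detected with fluorescent anti-GST, and scans were normalised with masliner. The Universal PBM Analysis Suite gave each ungapped eight-base word, pooled with its reverse complement, an E-score, a modified Wilcoxon-Mann-Whitney statistic.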

Row | Sequence | PBM E-score
1 | AACCACGT | -0.0215
2 | ACTCCTGA | -0.0893
3 | AGTACACG | 0.0246
4 | GACGCGTA | 0.0753
5 | GCTGATTA | 0.151
6 | AGAAACGG | 0.107
7 | CATACTAC | 0.188
8 | GGTAACAA | 0.235
9 | CAGCTCGA | -0.161
10 | AAGTTGTC | 0.0924
11 | AGTCGCCG | -0.0133
12 | AAAATTCT | 0.224
13 | GAAATCAC | 0.185
14 | CGGGGATC | -0.368
15 | CTGTTCCC | -0.213
16 | GCGTTTCA | -0.00856
17 | ACTGAAAG | 0.126
18 | GGTGTCCA | -0.0545
19 | CCAGCGTA | -0.176
20 | CCCTTGGA | 0.0124
21 | ATTACACC | 0.0746
22 | CTACGCAC | -0.0578

Row | Sequence | PBM E-score
23 | CGTTACAC | 0.0514
24 | AGCTATGC | -0.167
25 | CAATGGCA | -0.0319
26 | CATCTGAC | -0.259
27 | CTACTTAC | 0.149
28 | AACTATCC | -0.0158
29 | AACAATTA | 0.366
30 | GGTGGGAC | -0.43
31 | GCCGAACC | -0.241
32 | AATTCTGT | 0.251
33 | AATCCGCG | 0.127
34 | ATGGCGCA | 0.0266
35 | CGATCGAA | 0.00591
36 | ACTATTTA | 0.235
37 | AGCCGGGG | -0.342
38 | CACATAGC | -0.032
39 | CCAGTACC | -0.105
40 | GAGTAGTA | 0.163
41 | CCTACCCG | -0.0231
42 | CAGCACTA | -0.0204
43 | GCTCCGAA | 0.0402
44 | AGTATTCC | 0.161

Row | Sequence | PBM E-score
45 | GTGTTTGA | 0.191
46 | ACACTGAT | 0.00135
47 | TGTCCACA | 0.134
48 | TATTTGCA | 0.225
49 | CCCAGTTC | 0.018
50 | GGAGCCGA | -0.336
51 | AAGTATTG | 0.219
52 | GAACGGAC | -0.149
53 | AAGCATTG | 0.108
54 | GTGGAGCA | -0.254
55 | AAGGGTAC | -0.119
56 | AACAAGTG | 0.127
57 | AGGAGATC | 0.0653
58 | AGCCTTAA | -0.00502
59 | AATCTTCA | 0.318
60 | AGGAAGCC | -0.117
61 | CGACCCAC | -0.0852
62 | GAAGCTTC | 0.104
63 | GGTTAGCA | 0.0526
64 | GGCATCCA | -0.185
65 | CCGAGGTA | -0.0303
66 | GAATTCAA | 0.177

Row | Sequence | PBM E-score
67 | AAAAATGC | 0.196
68 | AGATGCAC | -0.14
69 | CAAAGTCA | -0.0549
70 | CTTGCCGC | -0.201
71 | CTATTCGA | -0.043
72 | TCAGTGAA | 0.0307
73 | ACCTGGCG | -0.328
74 | ATCCACCC | -0.274
75 | CCATGATC | -0.107
76 | CAACTGCC | 0.0104
77 | GGCCTAAC | -0.013
78 | GCTAGGGA | -0.218
79 | CTTTTTCA | 0.0943
80 | AGATATAA | 0.225
81 | ATCGTTCA | 0.0199
82 | CCAAGACC | -0.1
83 | CTAAAGAC | 0.00499
84 | CCCTAAGA | -0.234
85 | AACCTATT | 0.0936
86 | AGGGAACG | -0.258
